According to the supplement of paper PMC11741623:
The other results are listed elsewhere or left out. Interaction screen of human proteins with wild-type SARS-CoV-2 proteins by split-DHFR complementation in yeast, 1 µg/mL methotrexate. Value = fitness of the pair (three or more lineages) minus that of the viral protein without a human partner, on a scale set by negative (0) and fused positive (1) controls, mean of up to three cultures; higher = more likely to interact. Active = false discovery rate below 0.05 (one-sided t-test) in at least one culture. Nearly all pairs are not hits, and differences among them are mostly noise (correlation between cultures about 0.3); most hits were seen in one culture only. Human sequences are the Swiss-Prot entries looked up by gene name; the clone may be another isoform. NSP2 values were corrected by the authors for a growth advantage. Listed are human proteins with a hit and a random twelfth of the others.

B1: KIAA0895, Q8NCT3 (protein)
chain: MAGCTRKLTHLRKRIHRPRRRTTRRWKRWFKFRKRKGEKRPRPNHKAVARRAKLKFSTSEKLHWPEQELAKKSILNAEDSLIIDNKRSISHLSSGVLKDIFTTGTSSYNVLLQSKEEKKYHSQKQSSSTYSKRCRKPSKSPNTSRSKDPRRMKALVPVTSSGTWYCLERRPAVFVTSSVSSPVKFTHDISVTGNGIVLPPKPKSKVKWCHFSTLPKPKPQLSRSFEKGDDFSGKKFCILTAIKPTNLEKEKLRFFKSDYTYNPQFEYANPALPSVLAKHSHASDRFLKQIVVHLTEDLLSRASMTVVNGCPTLTINVSTAREHWLEGMLRHEIGTHYFRGINNLQQPWNSWTGRKKHELKPNNPTEEGLASIHSVLFRKDPFLWRAALLYYTVYQASQMSFCELFKDIGRFVKDPNTRWDYCVRAKRGWTDTSQPGCFSKDQVYLDGILQILRYRDTIDFHLLTALGKVSYEDVDRLKGLAVTENMRVPHFLQDHGRYMEHLEKIMEVNELTDRELKDLI
B2: HS3ST3B1, Q9Y662 (protein)
chain: MGQRLSGGRSCLDVPGRLLPQPPPPPPPVRRKLALLFAMLCVWLYMFLYSCAGSCAAAPGLLLLGSGSRAAHDPPALATAPDGTPPRLPFRAPPATPLASGKEMAEGAASPEEQSPEVPDSPSPISSFFSGSGSKQLPQAIIIGVKKGGTRALLEFLRVHPDVRAVGAEPHFFDRSYDKGLAWYRDLMPRTLDGQITMEKTPSYFVTREAPARISAMSKDTKLIVVVRDPVTRAISDYTQTLSKRPDIPTFESLTFKNRTAGLIDTSWSAIQIGIYAKHLEHWLRHFPIRQMLFVSGERLISDPAGELGRVQDFLGLKRIITDKHFYFNKTKGFPCLKKAEGSSRPHCLGKTKGRTHPEIDREVVRRLREFYRPFNLKFYQMTGHDFGWD

Target: SARS-CoV-2 M
Test: yeast fitness gain over the viral ORF with no human partner (scaled fitness); higher = more likely to interact
Protocol: (§1)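 Split mouse DHFR complementation in pooled diploid yeast: human ORFeome clones carry one fragment and viral ORFs the other; barcoded lineages compete in 1 µg/mL methotrexate and fitness is read by barcode sequencing in up to three cultures.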

Row | Binder | yeast fitness gain
1 | B1 | inactive: -0.0635
2 | B2 | inactive: -0.0878

Target: SARS-CoV-2 NSP10
Test: as above
Protocol: as §1

Row | Binder | yeast fitness gain
3 | B1 | inactive: -0.021
4 | B2 | inactive: -0.0771

Target: SARS-CoV-2 NSP2
Test: as above
Protocol: as §1

Row | Binder | yeast fitness gain
5 | B1 | inactive: -0.473
6 | B2 | inactive: -0.218

Target: SARS-CoV-2 NSP5
Test: as above
Protocol: as §1

Row | Binder | yeast fitness gain
7 | B1 | inactive: 0.025

Target: SARS-CoV-2 NSP8
Test: as above
Protocol: as §1

Row | Binder | yeast fitness gain
8 | B1 | inactive: -0.517
9 | B2 | inactive: -0.00425

Target: SARS-CoV-2 ORF10
Test: as above
Protocol: as §1

Row | Binder | yeast fitness gain
10 | B1 | inactive: 0.0688
11 | B2 | inactive: -0.151

Target: SARS-CoV-2 ORF6
Test: as above
Protocol: as §1

Row | Binder | yeast fitness gain
12 | B1 | inactive: -0.0182

Target: SARS-CoV-2 ORF8
Test: as above
Protocol: as §1

Row | Binder | yeast fitness gain
13 | B1 | inactive: -0.0359
14 | B2 | inactive: 0.0732

Target: SARS-CoV-2 ORF9B
Test: as above
Protocol: as §1

Row | Binder | yeast fitness gain
15 | B1 | inactive: 0.00753
16 | B2 | inactive: -0.0661

Target: SARS-CoV-2 S
Test: as above
Protocol: as §1

Row | Binder | yeast fitness gain
17 | B1 | inactive: -0.284

Target: SARS-CoV-2 NSP12
Test: as above
Protocol: as §1

Row | Binder | yeast fitness gain
18 | B2 | inactive: -0.416

Target: SARS-CoV-2 NSP13
Test: as above
Protocol: as §1

Row | Binder | yeast fitness gain
19 | B2 | inactive: -0.0864

Target: SARS-CoV-2 NSP6
Test: as above
Protocol: as §1

Row | Binder | yeast fitness gain
20 | B2 | inactive: -0.0644

Target: SARS-CoV-2 NSP7
Test: as above
Protocol: as §1

Row | Binder | yeast fitness gain
21 | B2 | inactive: 0.0293

Target: SARS-CoV-2 ORF3A
Test: as above
Protocol: as §1

Row | Binder | yeast fitness gain
22 | B2 | inactive: -0.429

Target: SARS-CoV-2 ORF3B
Test: as above
Protocol: as §1

Row | Binder | yeast fitness gain
23 | B2 | inactive: 0.0379
